Here are results for twelve molecules from patent US20250188179A1 (ADAGENE PTE, published 2025).

The term Kd denotes the constant that tells how readily two partners part at equilibrium. The low end stands for a tighter complex, the high end for a looser complex.

First the molecules themselves.
B1: TY22598 (antibody, human IgG4 S228P, kappa)
heavy: EVQLVESGGGLVQPGGSLRLSCAASGFSLSTGGVGVGWIRQAPGKGLEWLALIDWADDKYYSPSLKSRLTISRDNSKNTLYLQLNSLRAEDTAVYYCARGGSDTVIGDWFAYWGQGTLVTVSSASTKGPSVFPLAPCSRSTSESTAALGCLVKDYFPEPVTVSWNSGALTSGVHTFPAVLQSSGLYSLSSVVTVPSSSLGTKTYTCNVDHKPSNTKVDKRV[in this place human IgG4 Fc with S228P (EU numbers)]
light: EVGSYSNNFASCLWRHRSCADSGRSAGGGGTPLGLAGSGGSDIQLTQSPSSLSASVGDRVTITCRASQSIGSYLAWYQQKPGKAPKLLIYDASNLETGVPSRFSGSGSGTDFTLTISSLQPEDFATYYCQQGYYLWTFGQGTKVEIKRTVAAPSVFIFPPSDEQLKSGTASVVCLLNNFYPREAKVQWKVDNALQSGNSQESVTEQDSKDSTYSLSSTLTLSKADYEKHKVYACEVTHQGLSSPVTKSFNRGEC
notes: Masked, uncleaved; hIgG4
B2: TY22591 (antibody, human IgG4 S228P, kappa)
heavy: B1 heavy
light: EVGSYSSTHAHCHHSPANCISSGRSAGGGGTPLGLAGSGGSDIQLTQSPSSLSASVGDRVTITCRASQSIGSYLAWYQQKPGKAPKLLIYDASNLETGVPSRFSGSGSGTDFTLTISSLQPEDFATYYCQQGYYLWTFGQGTKVEIKRTVAAPSVFIFPPSDEQLKSGTASVVCLLNNFYPREAKVQWKVDNALQSGNSQESVTEQDSKDSTYSLSSTLTLSKADYEKHKVYACEVTHQGLSSPVTKSFNRGEC
notes: Masked, uncleaved; hIgG4
B3: TY22595 (antibody, human IgG4 S228P, kappa)
heavy: B1 heavy
light: EVGSYNDYNYHCKWRPSRCHNSGRSAGGGGTPLGLAGSGGSDIQLTQSPSSLSASVGDRVTITCRASQSIGSYLAWYQQKPGKAPKLLIYDASNLETGVPSRFSGSGSGTDFTLTISSLQPEDFATYYCQQGYYLWTFGQGTKVEIKRTVAAPSVFIFPPSDEQLKSGTASVVCLLNNFYPREAKVQWKVDNALQSGNSQESVTEQDSKDSTYSLSSTLTLSKADYEKHKVYACEVTHQGLSSPVTKSFNRGEC
notes: Masked, uncleaved; hIgG4
B4: TY22599 (antibody, human IgG4 S228P, kappa)
heavy: B1 heavy
light: EVGSYTDNYDYCPRLRRKCYHSGRSAGGGGTPLGLAGSGGSDIQLTQSPSSLSASVGDRVTITCRASQSIGSYLAWYQQKPGKAPKLLIYDASNLETGVPSRFSGSGSGTDFTLTISSLQPEDFATYYCQQGYYLWTFGQGTKVEIKRTVAAPSVFIFPPSDEQLKSGTASVVCLLNNFYPREAKVQWKVDNALQSGNSQESVTEQDSKDSTYSLSSTLTLSKADYEKHKVYACEVTHQGLSSPVTKSFNRGEC
notes: Masked, uncleaved; hIgG4
B5: TY23573 (antibody, human IgG1, kappa)
heavy: EVQLVESGGGLVQPGGSLRLSCAASGFSLSTGGVGVGWIRQAPGKGLEWLALIDWADDKYYSPSLKSRLTISRDNSKNTLYLQLNSLRAEDTAVYYCARGGSDTVIGDWFAYWGQGTLVTVSS[in this place human IgG1 constant region]
light: EVGSYTDNYDYCPRLRRKCYHPLGLAGSGGSDIQLTQSPSSLSASVGDRVTITCRASQSIGSYLAWYQQKPGKAPKLLIYDASNLETGVPSRFSGSGSGTDFTLTISSLQPEDFATYYCQQGYYLWTFGQGTKVEIKRTVAAPSVFIFPPSDEQLKSGTASVVCLLNNFYPREAKVQWKVDNALQSGNSQESVTEQDSKDSTYSLSSTLTLSKADYEKHKVYACEVTHQGLSSPVTKSFNRGEC
notes: Masked, uncleaved; hIgG1
B6: TY22586 (antibody, human IgG4 S228P, kappa)
heavy: B1 heavy
light: EVGSYPTDLDACADAPNHCHFSGRSAGGGGTPLGLAGSGGSDIQLTQSPSSLSASVGDRVTITCRASQSIGSYLAWYQQKPGKAPKLLIYDASNLETGVPSRFSGSGSGTDFTLTISSLQPEDFATYYCQQGYYLWTFGQGTKVEIKRTVAAPSVFIFPPSDEQLKSGTASVVCLLNNFYPREAKVQWKVDNALQSGNSQESVTEQDSKDSTYSLSSTLTLSKADYEKHKVYACEVTHQGLSSPVTKSFNRGEC
notes: Masked, uncleaved; hIgG4
B7: TY25154 (antibody, human IgG4 S228P, kappa)
heavy: B1 heavy
light: EVGSYPTDLDACADAPNHCHFSGGGPLGLAGGSDIQLTQSPSSLSASVGDRVTITCRASQSIGSYLAWYQQKPGKAPKLLIYDASNLETGVPSRFSGSGSGTDFTLTISSLQPEDFATYYCQQGYYLWTFGQGTKVEIKRTVAAPSVFIFPPSDEQLKSGTASVVCLLNNFYPREAKVQWKVDNALQSGNSQESVTEQDSKDSTYSLSSTLTLSKADYEKHKVYACEVTHQGLSSPVTKSFNRGEC
notes: Masked, uncleaved; hIgG4
B8: TY25153 (antibody, human IgG4 S228P, kappa)
heavy: B1 heavy
light: EVGSYPTDLDACADAPNHCHFGGGPLGLAGGSDIQLTQSPSSLSASVGDRVTITCRASQSIGSYLAWYQQKPGKAPKLLIYDASNLETGVPSRFSGSGSGTDFTLTISSLQPEDFATYYCQQGYYLWTFGQGTKVEIKRTVAAPSVFIFPPSDEQLKSGTASVVCLLNNFYPREAKVQWKVDNALQSGNSQESVTEQDSKDSTYSLSSTLTLSKADYEKHKVYACEVTHQGLSSPVTKSFNRGEC
notes: Masked, uncleaved; hIgG4
B9: TY25155 (antibody, human IgG4 S228P, kappa)
heavy: B1 heavy
light: B7 light with G24R
notes: Masked, uncleaved; hIgG4
B10: TY25370 (antibody, human IgG1, kappa)
heavy: EVQLVESGGGLVQPGGSLRLSCAASGFSLSTGGVGVGWIRQAPGKGLEWLALIDWADDKYYSPSLKSRLTISRDNSKNTLYLQLNSLRAEDTAVYYCARGGSDTVIGDWFAYWGQGTLVTVSS[in this place human IgG1 constant region with changes]
light: EVGSYNDYNYHCKWRPSRCHNPLGLAGSGGSDIQLTQSPSSLSASVGDRVTITCRASQSIGSYLAWYQQKPGKAPKLLIYDASNLETGVPSRFSGSGSGTDFTLTISSLQPEDFATYYCQQGYYLWTFGQGTKVEIKRTVAAPSVFIFPPSDEQLKSGTASVVCLLNNFYPREAKVQWKVDNALQSGNSQESVTEQDSKDSTYSLSSTLTLSKADYEKHKVYACEVTHQGLSSPVTKSFNRGEC
notes: Masked, uncleaved; hIgG1 S267E/L328F
B11: TY25372 (antibody, human IgG1, kappa)
heavy: EVQLVESGGGLVQPGGSLRLSCAASGFSLSTGGVGVGWIRQAPGKGLEWLALIDWADDKYYSPSLKSRLTISRDNSKNTLYLQLNSLRAEDTAVYYCARGGSDTVIGDWFAYWGQGTLVTVSS[in this place human IgG1 constant region with changes]
light: EVGSYTDNYDYCPRLRRKCYHGGGPLGLAGGGSDIQLTQSPSSLSASVGDRVTITCRASQSIGSYLAWYQQKPGKAPKLLIYDASNLETGVPSRFSGSGSGTDFTLTISSLQPEDFATYYCQQGYYLWTFGQGTKVEIKRTVAAPSVFIFPPSDEQLKSGTASVVCLLNNFYPREAKVQWKVDNALQSGNSQESVTEQDSKDSTYSLSSTLTLSKADYEKHKVYACEVTHQGLSSPVTKSFNRGEC
notes: as for B10
B12: TY25371 (antibody, human IgG1, kappa)
heavy: EVQLVESGGGLVQPGGSLRLSCAASGFSLSTGGVGVGWIRQAPGKGLEWLALIDWADDKYYSPSLKSRLTISRDNSKNTLYLQLNSLRAEDTAVYYCARGGSDTVIGDWFAYWGQGTLVTVSS[in this place human IgG1 constant region with changes]
light: B5 light
notes: as for B10

Where a chain is given by its changes, count along the chain named. In names and notes the source's numbering stands. Several values for one entry are separate records, joined by “and”; a condition that tells them apart may be missing. Equal entries are not always repeated.

One experiment has as its target T1, full-length human CD137 with C-terminal 3xMyc tag displayed on yeast cells (human, UniProt Q07011 24-255).
T1 construct: whole, on cells; not used; also called hCD137; not shown: C-terminal 3xMyc tag
T1 sequence (Q07011 24-255): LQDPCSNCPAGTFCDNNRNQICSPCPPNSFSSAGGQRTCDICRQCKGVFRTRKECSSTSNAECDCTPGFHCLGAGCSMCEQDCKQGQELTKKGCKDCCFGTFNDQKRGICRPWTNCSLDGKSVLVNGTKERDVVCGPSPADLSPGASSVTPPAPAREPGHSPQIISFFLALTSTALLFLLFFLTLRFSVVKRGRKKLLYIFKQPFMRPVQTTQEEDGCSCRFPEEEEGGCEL
As to the kind of experiment: KD divided by KD of parental TY21242; FACS on yeast hCD137; data batch 1.
With B1, the Masking efficiency amounted to 31 fold.
Same read-out and setting: then B2, with 38 fold.
On the same count and under the same terms, in the case of B3 it was 379 fold; in that of B4, 348 fold.

Another experiment addresses T1, full-length human CD137 with C-terminal …. Description: KD divided by KD of parental TY21242; FACS on yeast hCD137; data batch 2.
Regarding B5, the Masking efficiency was determined as 820 fold.
On the same count and under the same terms, then B3, with 141 fold; and B4, with 246 fold.

The target is the same in another experiment. Description: KD divided by KD of parental TY21242; FACS on yeast hCD137; data batch 3.
In the case of B5, the Masking efficiency worked out at 279 fold.
Regarding B6, the Masking efficiency was determined as 361 fold.
As for B7, the Masking efficiency was found to be 62 fold.
For the molecule B8, the Masking efficiency was determined as 60 fold.
For B9, the Masking efficiency stood at 1130 fold.
For B4, the Masking efficiency stood at 124 fold.

The target is the same in the next experiment. Description: FACS titration on yeast displaying full-length hCD137-3xMyc, no protease; data batch 1.
B1: the equilibrium dissociation constant (Kd) was found to be 8.61 nM.
The same measure, in the same setting: then B2, with 10.8 nM; and B3, with 107 nM; and B4, with 98.1 nM.

The next experiment shares this target. Description: FACS titration on yeast displaying full-length hCD137-3xMyc, no protease; data batch 2.
In turn, B5 gave a Kd of 239 nM.
The molecule B3 displayed a Kd of 41.2 nM.
The same measure, in the same setting: then B4, with 71.7 nM.

For a further experiment the target is unchanged. Description: FACS titration on yeast displaying full-length hCD137-3xMyc, no protease; data batch 3.
On to B5, for which the Kd turned out to be 99.3 nM.
For B6, the Kd was found to be 128 nM.
B7 displayed a dissociation constant Kd of 22.2 nM.
As for B8, binding was put at a Kd of 21.4 nM.
B9: binding was put at a Kd of 402 nM.
The molecule B4 had a Kd of 44 nM.

A further experiment has the same target. As to the kind of experiment: FACS titration on yeast displaying full-length hCD137-3xMyc, no protease; data batch 4.
Molecule B10 gave an equilibrium dissociation constant (Kd) of 42.2 nM.
The molecule B11 came in with a Kd of 70.9 nM.
Take B12: the Kd came to 61.9 nM.
On to B9, for which the Kd was 183 nM and 182 nM.

A further experiment shares this target. As to the kind of experiment: KD divided by KD of parental antibody (TY21242 or TY23310); FACS on yeast hCD137; data batch 4.
In the case of B10, the Masking efficiency is 240 fold.
The same measure, in the same setting: in the case of B11 it was 402 fold; in that of B12, 351 fold.
